Results published in the RNAGym collection of RNA variant scans (doi:10.7554/elife.90254).
Read counts are not given, so values of variants with three or more changes are uncertain.

B1: LINE1-full (parent)
chain: UACGUAGGUGGUUUUCCCCUGAUAGUGCUAAGGGGGCCUGGAAGUUUGGACUGGGCAGAGCUCAACACAGCGUGGCAAAGUGGCUGUGGCUAGACUGCCUCUCUGGAUUCCUCGUCACUCAGCAGGGCAUCUCUGAGAGAAAUGCC

Variants of: B1
Assay: self-cleavage, relative activity (ratio to wild type); higher = more cleavage; in vitro, sequencing; the parent is a self-cleaving ribozyme

Row | Variant | self-cleavage
1 | U13A U46A U108C A129G | 1.02
2 | U13A C128U A140G | 0.39
3 | U13A A64U U132C | 0.3
4 | U13A U87A A124U | 0.07
5 | U13C A43G A57G C110U U134C | 0.97
6 | U13C A30G A77U A107G | 1.39
7 | U13C A30U A43G A67U U91C | 0
8 | U13A A42G U62C | 0.06
9 | U13A G35A U47C U85C U87A | 0.06
10 | U13A U62A U91C A94G U119A | 0
11 | U13A A65G A141G | 0.04
12 | U13A C19G G144C | 0.53
13 | U12G U96C U104A A141C | 0
14 | U13C A24U A50G G126U U134A | 0.78
15 | U13A A22G U85C | 0
16 | U13C A50G A59U A65G U100C U143A | 0
17 | U13C A31G A94G | 0.62
18 | U13C A50G A69C | 0
19 | U13A A22G G35U A124U U143C | 0.91
20 | U13C A43G A59G U96C G97A U115C | 0.25
21 | U13C A31U U47C U73A U109C U119C | 0

Row | Variant | self-cleavage
22 | U13C A42G U115C G135U | 1.64
23 | U13C A22G A117C U132C | 1.1
24 | U13C A50U U52C | 0.54
25 | U13C A50C A64G A136G | 0.89
26 | U13A G33U A42G | 1.43
27 | U13A U23C A43U A65G | 0.13
28 | U13C A22G U47C C123A | 1.03
29 | U13A A30C A117U A141G | 1.15
30 | U13C A43G U100C A129U U132C A142U | 1.53
31 | U13A U47C A57G C98U | 0.25
32 | U13C A24C A43G U102C C131A A140G U143C | 0.84
33 | U13C A43G U73A A77G C90G G93U A141G | 0.09
34 | U13A A67G C71U | 0.11
35 | U13A U102A A107G | 1.15
36 | U13C A50U C110U A124G C128U | 1.51
37 | U13A U39A A43G | 0.06
38 | U13A A78G U96C | 0.1
39 | U13C A24C A129C | 2.3
40 | U13C A30G A79G A129G | 0.47
41 | U13A A67U U109A G127A | 0.04
42 | U13A A78G A79G U115A | 0.78

Row | Variant | self-cleavage
43 | U12G U102A A124G | 1.47
44 | U13A U14G U20C C37U U45C A65G U81A U115A | 0
45 | U13C A50U U87A U115G A141G | 0.14
46 | U13C A31U C38U A79G U81A A121G A124U | 1.09
47 | U13A U87C A92G | 0
48 | U13A U87C A92C | 0.24
49 | U13C A43G U115C A142G | 2.12
50 | U13C A50G G53U A121G | 1.31
51 | U13A G33A A94G | 0.19
52 | U13A U26C U29G U73C | 2.45
53 | U13A C113U A124G | 0.56
54 | U13A U112C C113U | 0.48
55 | U13A A57G U109C | 0.28
56 | U13A U14A C66A | 0.06
57 | U13A U29C C84U | 0.13
58 | U13A A79G A107G A136G | 1.23
59 | U13C A42G U52C G86A | 0.19
60 | U13C A24U A30G A57G A92G U109A | 2.12
61 | U13A U134A A141G | 0.48
62 | U13C A42G G60U A140G | 0.08
63 | U13A A77G U112C | 1.53

Row | Variant | self-cleavage
64 | U13A U132C A141G | 1.3
65 | U13A U96A C99A | 0.07
66 | U13A U29C U62C U109C A138G | 0.31
67 | U13C A43G A77G U108C | 0
68 | U13A U91C A124G | 0.48
69 | U13A U73C G86A | 0.05
70 | U13A A31G U52A A67G | 0.21
71 | U13A A79G G93C | 0.07
72 | U13A U73C C113U A124U | 0.93
73 | U13A U26C G54A | 0.37
74 | U13A U62A A138G | 0.02
75 | U13A A50G U81G | 0.63
76 | U13A U46C A129U | 1.87
77 | U13A U45C A77U C146U | 0.42
78 | U13C A22G U73C A117G | 0
79 | U13A A65G A77U | 0.07
80 | U13A G82A A121U | 1.06
81 | U13A A94G U102C | 0.32
82 | U13A G48A U100C A138G U143C | 1.76
83 | U12G U87A U112C | 0.34
